Consider one molecule from PubChem BioAssay (NCI).

Where a structure was tested more than once in an assay, its records may differ in their call.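 Step 1: grow cells in 96-well plates. Step 2: add test compound at a single concentration. Step 3: incubate 48 h. Step 4: record percent growth.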 Some entries of the source have several records that differ or are many. They are shown here; other results are not. How the source made its calls: active means growth percent below 10; inactive means the rest. There may be further records. This drug was run again and again over the years, at the concentration stated with the values; each value is one run. Additions like (4×) stand for listed records that agree.

One test relates to SK-MEL-28 melanoma. The test can be described thus: NCI-60 one-dose screen, 48 h (100 = growth as untreated, 0 = no growth, -100 = all killed).
A further test deals with EKVX NSCLC. The test is described as above. The note with it: 0.25 µM.

Take `COc1cccc2c1C(=O)c1c(O)c3c(c(O)c1C2=O)C[C@@](O)(C(=O)CO)C[C@@H]3OC1CC(N)C(O)C(C)O1` (stereo not given in full): the growth entry was “active: -36.2%, -27.9%, -54.5% and inactive: 43, 45.2, 46.9, 20, 50.4, 34.1, 50.8, 52.3, 53, 64.7, 55.3, 56.6, 62.9, 55.2, 48.9, 73.6, 90.8, 64.2, 85.8, 85.1, 90, 57, 60.9, 51.9, 59.4, 55.9%” in the test on SK-MEL-28 melanoma (0.25 µM, runs of 2022); “active: -96.5, -91.6, -85.2, -92.2 (2×), -98.4, -95.1, -90, -88, -89.6, -80.5, -86.2, -79.6, -96.6, -84.6, -66.7, -60.7, -87.6, -93.8%” with SK-MEL-28 melanoma (25 µM, runs of 1991); “active: -100 (8×), -75.1, -91.8, -79, -68.6, -96.9 (3×), -99, -94, -86.1, -87.4, -73.8, -94.4 (2×), -91.5, -80.7, -79.4, -95.1, -98, -96.2 (4×), -94.6, -70.2, -95.3 (2×), -90.1 (2×), -77.5, -84.7, -79.3, -79.2, -83.5, -77.6, -80.1, -81.2, -97.8, -97.9 (2×), -99.6 (2×), -99.5 (3×), -89.3, -93.2, -97.3, -98.3, -85.6, -91.4, -93.1, -82.9, -48.1, -95.9, -97.6 (2×), -97.7, -96.5 (3×), -95.5, -92.5, -84.2, -88.4, -87.6, -60.7, -99.4, -93.5 (2×), -98.1, -99.1, -96.1, -89.1, -77.3, -34.2, -65.1, -71.2, -96.6, -98.6, -81.8, -95.6, -92.4, -91.1, -46.9, -61.5, -53.5, -86.6, -89.7, -99.2, -97.5, -97, -69.7, -69.1, -93, -82, -51, -87.8, -56.6, -76.3, -95.8, -67.5, 2.75, -75.3, -71.4, -57.2, -62, -77, -65.8, -44.1%” with SK-MEL-28 melanoma (25 µM, runs of 1992); “active: -82.1, -93.8, -54.3, -18.5, -26, -96.7, -58.4, -67.1, -63, -61.9, -100 (2×), -97.9, -88.8, -85, -95.4, -47.4, -64.1, -57.8, -36.7, -40.4, -88.2, -60.7, -72.6, -78, -45.8, -80.2, -69.8, -83, -60.5, -72.2, -88.1, -80.7, -74.2, -54.5, -96.1, -71.4, -52, -99.7, -86.9, -84.2, -94.6, -80.8, -98.2, -97, -91, -98.8, -69.9, -94.4, -97.7%” in the test with SK-MEL-28 melanoma (25 µM, runs of 1993); “active: -86.2, -94.8, -87.1, -93, -100 (2×), -73.4, -90 (2×), -66.4, -83.3, -48.6, -96.5, -84.9 (2×), -98.7, -97.9, -66, -74.2, -91.2, -84.5, -98.6, -89.1, -32.8, -81.5, -93.7, -65.9, -73.9, -80.7, -84.6, -63.4% and inactive: 84.2%, 102%” with SK-MEL-28 melanoma (25 µM, runs of 1994); “active: -23.6, -67.7 (2×), -99.6, -77.7 (2×), -99.8, -89.7, -76.8, -1.26, -93.4, -95.8, -80.8, -90.9, -100 (2×), -54.4, -74.2, -98.6, -94.8, -78.3, -97.4, -79.8 (2×), 2.19, -49.2, -87.3, -68.4, -91, -42.7, -97.5, -98, -70.1, -92.5%” in the test with SK-MEL-28 melanoma (25 µM, runs of 1995). For the same molecule, the growth entry was “active: -79, -77.5, -9.31, -37.4, -82.2, -77.1, -95.5, -67.9, -100, -78.2, -87.1, -88.7, -76.8, -75.8, -83.1, -88.9, -97.6, -81.8, -76.1, -84.7, -52, -93.3, -56.9, -42.6, -90.3 (2×), -67.7, -54.3, -38.9, -56, -57.6, -64.1, -74, -74.1, -41, -37.9, -60.3, -92.9, -56.1, -55.5, -82.1% and inactive: 60.2%, 12.6%” in the test on SK-MEL-28 melanoma (25 µM, runs of 1996); “active: -81.7, -28, -56.1, -26.8, -32.2, -26.7, -75.6, -31.9, -98.7, -82.9, -48, -83.3, -78, -49.7, -90.5, -77.1, -48.7, -94.4, -71.5, -30.2, -44.4, -85, -94.7, -92.9, -64.6, -90.6, -73, -94.8, -74.8, -75.9, -87.9, -100, -99.3, -95, -55.4, -75.5, -98.2, -93.4, -65.6, -81.1, -82.4, -79%” in the test on SK-MEL-28 melanoma (25 µM, runs of 1997); “active: -83.2, -84.9, -97.2, -45, -94.9, -29.4, -71.3, -64.2, -85, -92.7, -41.5, -56.6, -63.3, -65.2, 1.63, -90.6, -62.3, -75.3, -78.8, -57, -22, -78.1, -73.8% and inactive: 14.5%” with SK-MEL-28 melanoma (25 µM, runs of 1998); “active: -84.9, -54.5, -70.8, -83.9, -100, -42.1, 1.95, 0.622, -7.16, 7.08, 1.59% and inactive: 13.9%, 12.4%” in the test on SK-MEL-28 melanoma (25 µM, runs of 1999); “active: 5.52, -100, -53, -85.2%” with SK-MEL-28 melanoma (25 µM, runs of 2000); “inactive: 66.6%, 73.2%” with EKVX NSCLC (runs of 2006). Besides, the growth result was “inactive: 74.3, 82.4, 70.1, 63.4, 83.1, 68.2, 71.4, 84.3, 90.4, 86.3, 77, 105, 96.8, 71.1, 97.7 (2×), 98.4, 94.7 (2×), 96.5, 102, 97.4, 107, 109, 104, 106, 93.9, 43.5, 94, 88.8, 92.6, 84.7, 100, 65.6, 87.5, 70, 90.1, 74.8, 90.3, 78, 82.8, 82.5%” in the test with EKVX NSCLC (runs of 2007); “inactive: 40.5, 50.1, 84.4, 72, 86.8, 79.7, 79.6, 86, 76.1, 81.4 (2×), 85.8, 87.3, 68.9, 71.6, 77.9, 63.8 (3×), 64.5 (2×), 60.7, 69.2 (2×), 74, 93.4, 72.5, 45.2, 74.8, 60.6, 62.6, 72.2, 71.8, 63.2, 53.1, 55, 81.2, 92.6, 70.9, 77.4, 81.9, 96.4, 60.5, 65.6, 79, 74.2, 63.5%” with EKVX NSCLC (runs of 2008); “inactive: 58.9, 66.2 (3×), 59.8, 68.2, 72.9, 68.6, 74.9, 74 (2×), 75.5, 67.9, 55.7 (2×), 62.6, 58.1, 56.6, 65.6, 66.3 (2×), 62.1, 72, 63.2, 69.6, 85.5, 73.6, 82.9, 75.6, 74.3, 80.6, 70.3, 72.3 (2×), 98.3, 83.2, 72.1, 69.8, 77, 69.4, 60.9, 78.1 (2×), 85.8 (2×), 94.1, 95.3, 81.9, 83.7, 83, 77.7 (2×), 69.1, 86.3, 74.2, 60, 82.8, 98.5, 71.7, 62.5, 81.5, 65, 72.7, 86.4, 89, 90.9, 86.5%” in the test with EKVX NSCLC (runs of 2009).
